Source: the supplement of paper PMC11417369
± gives the standard deviation of the averaged measurements. The list shows a part of the results.

Test system: PfAP2-I AP2 domain 3 (GST-tagged)
Assay: gcPBM binding intensity (ln(normalized median fluorescence intensity)); higher = stronger DNA binding
In short: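 GST-fused DNA-binding domains of P. falciparum, expressed in E. coli, were applied at about 25 μg on average for 1 h to an Agilent 4 × 180k array of primer-extended double-stranded 36-bp intergenic genomic probes and negative controls. Binding intensity is the highest Masliner-normalised natural-log median intensity across replicate spots of either probe orientation, measured with Alexa488 anti-GST antibody and a 488 nm scan.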

| Sequence | gcPBM binding intensity (ln) |
| --- | --- |
| ACGTTGCGACGCAAGGTGCTTATTTTCTTATAAATA | 9.19 ± 0.17 |
| AACAAATTTTTTATTAAACACACAAACATATATATA [CACACA_site8588] | 8.04 ± 0.73 |
| GCTCATTGAAATTATACACACCAAATATATAAATAT [CACACA_site5385] | 7.99 ± 0.49 |
| TGTGAATATATCTTTAAAAAGGATAAATAATAATTT [CACACA_negctrl_site507] | 7.44 ± 0.54 |
| TTTTATTTTTTCTATACATGCATGTCCAATTTTCTT [TGCATGCA_site304] | 8.03 ± 0.74 |
| TTATGGTATAAAAAAATACACACTTATATATATTCT [CACACA_site488] | 7.58 ± 0.53 |
| GTTTTTTTATAAAATTTTTATATAATTCTTTTATAA [CACACA_negctrl_site1605] | 7.72 ± 0.53 |
| AAAAAAAAAAAAAACACACATACACGCCCACCCATA [CACACA_site3391] | 8.64 ± 0.71 |
| TAATAATAAAAAATACGTACATATTATTTATATATG [XGTACX_site853] | 7.76 ± 0.12 |
| CATTTTATTCTATATGCATGTTAAAAAATGTGTTGA [TGCATGCA_site128] | 7.83 ± 0.51 |
| ATATATAAGAACATATATATTGGAAATATTGAATTT [XGTACX_negctrl_site121] | 7.93 ± 0.43 |
| AATAAAAATATTATATGTACATATTTTAATATATAT [XGTACX_site1259] | 7.73 ± 0.44 |
| TTATATAACTTTTCTAGTACTTGTATAAATTCCTAC [XGTACX_site3685] | 7.87 ± 0.57 |
| AAAAAAAAAGAAAAACGTACGTTTATTTAATATATA [XGTACX_site4018] | 7.34 ± 0.67 |
| ATAATACCCATTATCTTACAACAAAATGCAAACAAA [CACACA_negctrl_site1037] | 7.78 ± 0.44 |
| AACATAATATCATATACACACAAAAATATTGAAATA [CACACA_site2160] | 7.72 ± 0.52 |
| AAGAACATATTATATACATGCATAATTCGATAGATT [TGCATGCA_site882] | 7.9 ± 0.69 |
| AAAATTAGATTATGCACACACACTTAAAAATAATAA [CACACA_site1975] | 9.97 ± 0.46 |
| TAATTATAATAATAACGTACATATATAAAATGGTGA [XGTACX_site8434] | 8.04 ± 0.34 |
| TTAAAATATGTAGCTACACACACATAAACAAAATAA [CACACA_site8244] | 7.81 ± 0.55 |
| TGTAGTCTGGAGAAAAGTACACAGTATCTGGTAGCT [XGTACX_site2012] | 7.73 ± 0.78 |
| TATATATATATATAGGTGCTATAATTTATATACACA | 10.2 ± 0.3 |
| TTTTTTTTTCTGAATTTATAATTCAAAAATATATAT [CACACA_negctrl_site300] | 7.57 ± 0.67 |

| Sequence | gcPBM binding intensity (ln) |
| --- | --- |
| AGCAGTTTTTTTTTTTTTTTTTTTTTTATTAAAAGC [XGTACX_negctrl_site392] | 7.51 ± 0.53 |
| TACTTATTTTTATAGCATTTCACGGAGGTAGTAATA [CACACA_negctrl_site468] | 7.79 ± 0.47 |
| ATAATAAATCATCATATTACATTTATCTTTGTTGGA [CACACA_negctrl_site849] | 7.54 ± 0.69 |
| AACTGTAATTTTATACGTACATAAATAATATTATAT [XGTACX_site4277] | 8.17 ± 0.14 |
| TTTGCAACATATAAAAGTACAAATAATATATTTATT [XGTACX_site890] | 7.75 ± 0.38 |
| TTTATTATATGCACACGTACATATAATATATATATA [XGTACX_site4108] | 9.54 ± 0.52 |
| ATCGGTATATTATTACATGAATAAACTTACACACAC [TGCATGCA_negctrl_site21] | 8.98 ± 0.4 |
| TTGTATTAATAATTTTTTATATTATAGTTTATAATA [GTGCAC_negctrl_site130] | 7.73 ± 0.35 |
| TATATATATAACATTGTACACACAAAGAAATAATAT [CACACA_site8998] | 8.74 ± 0.39 |
| TATATATAAAATGTATGTACATATTTATTTATATAG [XGTACX_site657] | 7.56 ± 0.2 |
| AAGTGAAATAAAATATGTACATATATGTATATATAA [XGTACX_site4473] | 7.75 ± 0.42 |
| TTTTTTCTTCGTGTATTAAGTCACAATAGGAAAAAA [GTGCAC_negctrl_site644] | 8.39 ± 0.4 |
| AAAAAAAAAGAATGTGAACACACACCGTGAATATAA [CACACA_site8342] | 7.62 ± 0.71 |
| TGTATTTATAGACACACACACTTTCTTTTTTTAAGA [CACACA_site7010] | 8.06 ± 0.14 |
| AACAATTAGAACTTTGCACACTTCTATATATTTTGT [CACACA_site674] | 9.48 ± 0.6 |
| TGTATAATAAGGAAGAGTACAAGTAAATACACACAT [XGTACX_site2084] | 8.49 ± 0.61 |
| TACATATATAAAAAAACACACACATATATATATATA [CACACA_site8315] | 9.22 ± 0.27 |
| TTTCTAAGAAAAAAAAAAAAAAAAAAAAAGATACAA [GTGCAC_negctrl_site525] | 7.36 ± 0.66 |
| ATATTTATTTTAATTTTTCTATATAAACTATTATGA [CACACA_negctrl_site739] | 7.54 ± 0.63 |
| AGGAAGGAAATAAATCAACACACATATATTATATAT [CACACA_site8678] | 7.67 ± 0.61 |
| TATATATATTATATATGTACATATTGTATATTTTTG [XGTACX_site4564] | 8.21 ± 0.39 |
| TATGTAAAATGTGTTTGTACTTATTTATTATATAAA [XGTACX_site2816] | 7.75 ± 0.078 |
| ATTATAAATATCAGTGCACACATTTCTACGCAAAGT [CACACA_site4420] | 10.7 ± 0.4 |

| Sequence | gcPBM binding intensity (ln) |
| --- | --- |
| AAGGAGCCTATGAACACACACATGTACAGATATTAA [CACACA_site6107] | 7.79 ± 0.64 |
| CAAAATTATCAGAATCGTACATTTTTAACATATAAT [XGTACX_site7909] | 7.4 ± 0.49 |
| AAAACTATATTAATGTGTACACATCAAAATATTAAT [XGTACX_site6767] | 8.12 |
| TTACAAAACACTTATACACACATATATATATATATA [CACACA_site2716] | 9.23 ± 0.31 |
| TAATATATTAAAAATAGTACATAAGAAAAATAAGTA [XGTACX_site7957] | 8.11 ± 0.52 |
| ACAGGAAAAAACAATTGTACATGTATATATATATAT [XGTACX_site7677] | 9.34 ± 0.16 |
| ATATATATATATATATGTACATATTTTATTTGAAAT [XGTACX_site7411] | 9.38 ± 0.4 |
| GCATAATATACTCTTACACACCATTTCTAAATACAT [CACACA_site4912] | 8.24 ± 0.53 |
| AAGACAATATATGCAGTGCATATACATACATATATA | 9.81 ± 0.071 |
| AAAAAAAAAAAAAAAAGTACGTATTTTTTTTAAAAT [XGTACX_site2654] | 8.85 ± 0.47 |
| TTTTTTTTTTTTTTTTGTACGTAAAAAAATATATAC [XGTACX_site1290] | 8.31 ± 0.37 |
| TTGTTATATTACAGTAGTACATTTAAAATCTACTAC [XGTACX_site2620] | 7.73 ± 0.48 |
| ATTTTTATTTACAACCCCAAAAAGGAAAAACATAAA [CACACA_negctrl_site1169] | 7.87 ± 0.45 |
| AATATTTATACTATAACACACATACAGACAAAAAAA [CACACA_site6396] | 8.06 ± 0.49 |
| TTACATTATATACATACACACCCACCCACAAAAAAA [CACACA_site8187] | 9.55 ± 0.61 |
| ATAATATCATCAAACGCACACATACATAAATATATT [CACACA_site5230] | 8.46 ± 0.32 |
| TATTTTTATAATATATGTACATATATATATATATTA [XGTACX_site5343] | 7.8 ± 0.21 |
| ACATATTATATGAATACACACAAAAACTTATCGGTA [CACACA_site3439] | 7.63 ± 0.53 |
| TATTTACATTTATGTGCACACATTCCATTTGAAAGT [CACACA_site1954] | 9.935 ± 0.021 |
| CGGACATACATAGGAACATGCAAAATTTTTTATTTT [TGCATGCA_site575] | 7.62 ± 0.61 |
| AATAGAAAAAAAAAATGTACACATATAAAAGCATAT [XGTACX_site6306] | 7.93 ± 0.78 |
| TATTTTCTTTTTCTTGTACACACATAATATGGATGA [CACACA_site8168] | 8.15 ± 0.45 |
| TTGAAAATGAAAAAATGTACTTAAAAAAAAGGAACA [XGTACX_site8664] | 7.87 ± 0.51 |

| Sequence | gcPBM binding intensity (ln) |
| --- | --- |
| TCTTTGAATTTTTTAACACACACATGGGTGGATATA [CACACA_site8474] | 7.92 ± 0.49 |
| ATAAAATTGTATAACTGTACATATATATATATATAT [XGTACX_site5596] | 9.43 ± 0.53 |
| CCCACAAAGGAATATACACACATATATATATATATA [CACACA_site4091] | 9.4 ± 0.5 |
| TAAATATTTTTTTAGACACACATATATCTATGATAT [CACACA_site1107] | 7.38 ± 0.49 |
| AAAAAAATAATTTGTAGTACGATTCAATGAAAAGGC [XGTACX_site1287] | 8.14 ± 0.64 |
| ATACATATATACATATGTACATATATATATATATAT [XGTACX_site8206] | 9.15 ± 0.34 |
| TTTTTTCTTAAAGACATATATTTATTTGGTAAAACA [XGTACX_negctrl_site243] | 7.5 ± 0.64 |
| GGATATAACAGACACACACACACATATAAATATATT [CACACA_site7866] | 7.97 ± 0.55 |
| ATGCTATATTAAAAACGTACAAACTGTTTAGAAAAA [XGTACX_site8943] | 8.04 ± 0.2 |
| CAAAATAAAAATTAATGTACATAAAAAATGAATATA [XGTACX_site1085] | 7.88 ± 0.59 |
| TATTTGTTTTTATATAGTACATAAATATATATATAT [XGTACX_site7834] | 8.935 ± 0.021 |
| AAAATAAATATGAACACACACATTTATGCCTTTAAA [CACACA_site1271] | 7.62 ± 0.59 |
| AAAAAATAAATAAATACACACACACTAATATATATA [CACACA_site8488] | 8.39 ± 0.57 |
| AGAGATATAAGAAAAGCACACACACCCAAAAAAAAA [CACACA_site8917] | 8.53 ± 0.41 |
| TATATACAAAAAATATGTACATATATATATATATAT [XGTACX_site3497] | 9.36 ± 0.44 |
| TATATTATTTATTTTTGTACATATTATGAATGAATA [XGTACX_site3971] | 7.73 ± 0.33 |
| CTTCCTTCTAAATGCACACGGAAAGTATAAATGTAT [CACACA_site2501] | 9.23 ± 0.27 |
| TTACCTTTAAATGGATGTACAGAAATTTAAATTGTT [XGTACX_site7044] | 7.7 ± 0.46 |
| AAATAATTAGAAATAGTGCACATAATTAAGGGATAC | 11.5 ± 0.31 |
| TAGAAATATATAAATTGTACATGTTTGTATAATATA [XGTACX_site2097] | 7.84 ± 0.15 |
